Experimental data reported in patent publication US20210130494A1 (ALETA BIOTHERAPEUTICS, published 2021).

Columns and labels:
[1] = biological target: T1, EGFR on cells (A431 cells; 293T cells transiently transfected with EGFR cDNA) (UniProt P00533); experiment: flow cytometry, A431 cells, Trastuzumab-PE
T1 construct: whole, on cells; also called EGFR-positive cell

[2] = biological target: T2, CD20 on stable transfectant line 293-CD20 (UniProt P11836 1-297); experiment: flow cytometry, 293-CD20 cells, anti-huIgG-FITC
T2 construct: whole, on cells; also called CD20 expressing 293 cells
T2 sequence (looked up): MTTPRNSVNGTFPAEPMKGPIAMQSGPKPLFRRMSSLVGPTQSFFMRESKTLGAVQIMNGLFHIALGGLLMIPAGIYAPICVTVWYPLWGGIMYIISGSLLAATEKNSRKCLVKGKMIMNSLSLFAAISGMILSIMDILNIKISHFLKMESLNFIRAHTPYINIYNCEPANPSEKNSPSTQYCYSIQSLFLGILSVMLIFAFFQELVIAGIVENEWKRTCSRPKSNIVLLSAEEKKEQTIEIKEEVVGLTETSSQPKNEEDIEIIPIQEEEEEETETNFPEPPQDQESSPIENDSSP

Binder | binding result [1] | binding result [2]
Her2-D4-Panitumumab scFv (VH/VL) (construct #58) (other, C-terminal His tag; also called Her2 extracellular D4-Panitumumab scFv VH-VL-His; Her2-anti-EGFR scFv fusion protein) NRPEDECVGEGLACHQLCARGHCWGPGPTQCVNCSQFLRGQECVEECRVLQGLPREYVNARHCLPCHPECQPQNGSVTCFGPEADQCVACAHYKDPPFCVARCPSGVKPDLSY[letters of about 40 residues left out]GGGGSGGGGSGGGGSGGGGSQVQLQESGPGDVKPSETLSLTCTVSGGSVSSGDYYWTWIRQSPGKGLEWIGHIYYSGNTNYNPSLKSRLTISIDTSKTTFSLQLSSVTGEDTAIYYCVRDRVTGAFDIWGQGTTVTVSSASTGGGGSGGGGSGGGGSGGGGSDIQMTQSPSSLEASVGDRVTITCQASQDISNYLNWYQQKPGKSPKLLIYDASNLETGVPDRFSGSGSGTDFTFTISSLQAEDEGTYFCQHFDHLPLAFGGGTKLEIKRTHHHHHH | binds | 
CD19-D1+2-Leu16 scFv (VL/VH)-huIgGFc (construct #84) (Fc fusion) PEEPLVVKVEEGDNAVLQCLKGTSDGPTQQLTWSRESPLKPFLKLSLGLPGLGIHMRPLAIWLFIFNVSQQMGGFYLCQPGPPSEKAWQPGWTVNVEGSGELFRWNVSDLGGLGCGLKNRSSEGPSSPSGKLMSPKLYVWAKDRPEIWEGEPPCLPPRDSLNQSLSQDLTMAPGSTLWLSCGVPPDSVSRGPLSWTHVHPKGPKSLLSLELKDDRPARDMWVMETGLLLPRATAQDAGKYYCHRGNLTMSFHLEITARPGGGGSGGGGSGGGGSGGGGSDIELTQSPTILSASPGEKVTMTCRASSSVNYMDWYQKKPGSSPKPWIYATSNLASGVPARFSGSGSGTSYSLTISRVEAEDAATYYCQQWSFNPPTFGGGTKLEIKRGGGGSGGGGSGGGGSMAQVKLQESGAELVKPGASVKMSCKASGYTFTSYNMHWVKQTPGQGLEWIGAIYPGNGDTSYNQKFKGKATLTADKSSSTAYMQLSSLTSEDSADYYCARSNYYGSSYWFFDVWGQGTTVTVSSAAAGDPA[letters of human IgG1 Fc with C220P (EU numbers) left out] |  | no binding (tested: 200 µl)
